The results in this text go back to ChEMBL document CHEMBL4888484, “Replenishing the malaria drug discovery pipeline: Screening and hit evaluation of the MMV Hit Generation Library 1 (HGL1) against asexual blood stage Plasmodium falciparum ,using a nano luciferase reporter read-out” (2022).

Hit rate of the full screen: of about 150,000 compounds, about 540 (0.36%) showed an effect of 50% or more. The list shows a part of the results.

For this assay, the system named is Plasmodium falciparum. The assay can be described thus: Primary screen in NF54 nanoGlo assay, in single point, at 2uM, 72h; a lower Z score goes with more inhibition. The class given is functional, Erythrocyte. To be noted: timepoint 72 hour.
One may read the % Inhibition as the drop in the measured response relative to a control, in per cent. With `COC(=O)CN(C)C(=O)C[C@]1(c2ccccc2)CC(=O)N(CCc2ccccn2)C1=O`, the “% Inhibition” value is -5% and the Z score is 0.61.
Take `CCCO[C@@H](C)CNC(=O)c1oc(CC)nc1C`: the “% Inhibition” value was -3% and the Z score was 0.57.
The matching figures for `CCN1C(=O)Cc2cc(NC(=O)COc3ccccc3OC)ccc21`: 2% and -0.27.
In the same order, the values of `Cc1ncsc1C(=O)Nc1ccc(-n2cncn2)cn1` are -3% and 0.42.
In the same order, the values of `Cc1noc(C)c1CN1CCC[C@H](C(=O)Nc2ccccn2)C1` are 7% and -0.88.
Take `CC1CCCC(NC(=O)NCC(=O)Nc2cccnc2)C1` (centres undefined): the “% Inhibition” value is listed as -18% and the Z score was 2.72.
In the same order, the values of `Cn1cc(C(=O)NC[C@@H]2COc3ccccc3C2)cn1` are -10% and 1.18.
In the case of `CN1CCC[C@@H]1CCNC1CCN(c2ccc3c(c2)CCC3)CC1`, the “% Inhibition” value stood at 21% and the Z score is recorded as -2.96.
In the same order, the values of `CCCNC(=O)C(C)N1CCCC(C(F)(F)F)C1` (centres undefined) are 4% and -0.51.
As for `CC(C)S(=O)(=O)N1CCC2(CC1)C[C@@H](c1ccccc1)C(=O)N(C)C2`, the “% Inhibition” value is recorded as 6% and the Z score was -1.23.
The matching figures for `CCN(CC)c1ccc(CN(CCN(C)C)S(=O)(=O)c2ccccc2)c(OS(=O)(=O)CC)c1`: 2% and -0.27.
In the same order, the values of `O=C(C[C@@H](c1ccccc1)c1ccc(Cl)cc1)NCc1noc(C2CC2)n1` are -23% and 3.65.
Consider `O=C(CCc1nc(-c2ccc(S(=O)(=O)N3CCOCC3)cc2)no1)N1CCOCC1`, for which the “% Inhibition” value was -3% and the Z score came to 0.3.
For `O=S(=O)(NC(C1CC1)C1CC1)c1ccc2ccccc2c1`, the “% Inhibition” value came to 7% and the Z score is given as -1.34.
In the same order, the values of `COCCOCC(=O)N1CCN(c2nc3nccc(-c4cccc(C(F)(F)F)c4)n3n2)CC1` are -8% and 1.18.
The matching figures for `Cc1nccn1C[C@H]1CCCN(C(=O)Cc2noc3ccccc23)C1`: -10% and 1.48.
The matching figures for `COc1ccc(CC(=O)NCc2ccc3c(c2)CCN3C(=O)c2ccc(F)cc2)cc1OC`: -8% and 1.52.
`COCC1CCCN(C(C)c2nnnn2C)CC1` (centres undefined): the “% Inhibition” value is recorded as 1% and the Z score was -0.1.
In the same order, the values of `CC(=O)N1CCN(c2ncnc(N3CCN(C(C)=O)CC3)c2C(C)C)CC1` are -5% and 0.63.
With `CC(=O)NC(C)(C)C(=O)NCCc1noc(C2CCC2)n1`, the “% Inhibition” value is reported as -16% and the Z score came out at 1.73.
In the same order, the values of `CCC1(CNS(=O)(=O)CCN2C(=O)CCC2=O)CC1` are -14% and 1.6.
With `COc1ccc(-c2noc(-c3cccnc3N3CCN(c4ccccc4)CC3)n2)cc1`, the “% Inhibition” value is -8% and the Z score is listed as 1.14.
Consider `CCC1CCc2c(sc(NC(=O)CC(C)CC(=O)O)c2C(=O)NCc2ccccc2)C1` (centres undefined), for which the “% Inhibition” value was 8% and the Z score was -1.26.
In the same order, the values of `C[C@]1(c2ccccn2)NC(=O)N(Cc2ccccc2C#N)C1=O` are -15% and 1.92.
For the compound `CCC(NC(=O)N[C@H]1CC[C@@H](C(=O)N2CCCC2)C1)C1CCCO1` (some centres undefined), the “% Inhibition” value stood at 3% and the Z score is -0.49.
The matching figures for `O=C(Nc1ccc(Cl)c(Cl)c1)Nc1nc(-c2cc(Cl)ccc2Cl)cs1`: 0% and 0.01.
In the case of `COc1ccc(C(=O)N2CCC3(CC2)C[C@@H](Cc2cccc(F)c2)CCO3)cc1`, the “% Inhibition” value is recorded as -18% and the Z score turned out to be 2.36.
Regarding `CCN(C(=O)CS(=O)(=O)c1ccccc1)c1ccccc1C`, the “% Inhibition” value is given as -15% and the Z score is 2.47.
In the case of `Cn1nc(C(=O)N2CCN(C[C@H](O)c3ccco3)CC2)ccc1=O`, the “% Inhibition” value is recorded as -16% and the Z score was found to be 2.27.
The matching figures for `c1ccc(CN2C[C@H](c3ncco3)C3(CCN(CC4CCCCC4)CC3)C2)cc1`: -8% and 1.2.
The matching figures for `O=C1NC(=O)C2(CCN(C(=O)c3ccsc3)CC2)N1`: -5% and 0.66.
In the same order, the values of `CCc1nnc(C(C)NC(C)c2ccc(S(C)(=O)=O)c(F)c2)o1` (centres undefined) are 1% and -0.18.
Consider `CCc1nc2ccccc2c(=O)n1NC(=O)c1c(O)n(CC)c2ccccc2c1=O`, for which the “% Inhibition” value worked out at 1% and the Z score is -0.08.
For the compound `COCCCN(Cc1c(-c2ccccc2)noc1N(C)C1CCCCC1)C(=O)c1ccc(C)cc1`, the “% Inhibition” value is -10% and the Z score is on record as 2.01.
The matching figures for `O=C1CNc2ccc(C(=O)N3CCCC[C@H]3c3cccc(F)c3)cc2N1`: -8% and 1.39.
With `CS(=O)(=O)N1C[C@H]2CC[C@@H](C1)N(C(=O)NCCc1ccccc1F)C2`, the “% Inhibition” value was -6% and the Z score was found to be 0.86.
The matching figures for `CN(C(=O)N(C)[C@H]1CCS(=O)(=O)C1)C(C1CC1)C1CC1`: -14% and 2.36.
In the same order, the values of `OC1CC(c2cc(N3CCc4c(Cl)cccc4C3)ncn2)C1` (centres undefined) are -6% and 0.98.
The matching figures for `CCCN(CCC)c1nc(-c2cccs2)nc2c1sc(=S)n2Cc1ccccc1`: -8% and 1.07.
As to `O=C(Nc1ccn2nccc2c1)C1CCCC1`, the “% Inhibition” value is listed as 1% and the Z score is on record as -0.2.
Consider `OCCN(c1cc([C@H]2CCOC2)ncn1)C1CCCCC1`, for which the “% Inhibition” value is recorded as -19% and the Z score was 3.36.
As to `Cc1cc(CN2CCN(C)CC2)c(C)c(CN2CCCC[C@@H]2CN)c1`, the “% Inhibition” value was determined as 17% and the Z score was -2.65.
In the same order, the values of `Cc1oc2ncn(C)c(=O)c2c1C(=O)N1CCN(Cc2ccccc2)CC1` are 7% and -1.14.
Take `O=C(N[C@H]1CS(=O)(=O)Cc2ccccc21)c1cc(C(F)(F)F)n[nH]1`: the “% Inhibition” value is on record as -14% and the Z score was 1.6.
As for `Cc1nc(N2CCN(C(=O)CCCc3ccccc3)CC2)cc(-n2ccnc2)n1`, the “% Inhibition” value was -2% and the Z score is 0.23.
In the case of `CC1CC(N2C(=O)N3CCC[C@@]3(C)C2=O)C(=O)N1c1ccccc1` (some centres undefined), the “% Inhibition” value is given as 8% and the Z score was -0.86.
In the same order, the values of `CCOC(=O)CCNC(=O)N1CCCCCCN(C)C(=O)CC1` are -10% and 1.29.
In the same order, the values of `CC1CC(C)CN(Cc2ccc(CNC(=O)c3ccoc3)cc2)C1` (centres undefined) are -10% and 1.94.
In the same order, the values of `c1ccc(-n2nnc3c2CCN(CCO[C@H]2CCOC2)C3)cc1` are -3% and 0.49.
For the compound `CCCCc1nc(CN(CCO)C(C)(C)CO)cs1`, the “% Inhibition” value is recorded as -3% and the Z score worked out at 0.69.
The matching figures for `COCCC1(c2nc(-c3ccc(NC(C)(C)C)cn3)no2)CCC1`: 2% and -0.39.
Take `Cc1cc(C(=O)N2CCN(C(=O)c3ccco3)CC2)c2c(C)nn(-c3ccccc3Cl)c2n1`: the “% Inhibition” value was -8% and the Z score was determined as 1.01.
Regarding `CC(C)CNC1(C(=O)NCC2CC2)CCCC1`, the “% Inhibition” value worked out at 1% and the Z score is -0.19.
In the same order, the values of `CC1CCC(NC(=O)c2ccccc2N2C(=O)N3CCc4c([nH]c5ccccc45)[C@@]3(C)C2=O)CC1` (some centres undefined) are -11% and 1.61.
Take `Cc1ocnc1C(=O)N1CC[C@H]2[C@H](CCC(=O)N2CCc2cccs2)C1`: the “% Inhibition” value is reported as -10% and the Z score was found to be 1.35.
With `O=C(OC[C@@H](O)CN1CCN(c2ccccc2)CC1)c1ccccc1`, the “% Inhibition” value is -4% and the Z score is listed as 0.85.
In the same order, the values of `CC[C@H]1CN(c2ncnc(C(F)(F)F)c2Br)CCO1` are -11% and 1.49.
In the case of `CC[C@H](NC(=O)c1ccc2nnnn2c1)c1nc(C)c(C)s1`, the “% Inhibition” value is -8% and the Z score stood at 1.21.
Regarding `CCn1nc(C)cc1C(=O)N(C)[C@@H](C)c1nc(C)sc1C`, the “% Inhibition” value was -8% and the Z score came to 1.36.
In the same order, the values of `Cc1cn(CCOc2ccc(Cl)cc2)c(=O)n(Cc2ccccc2)c1=O` are 2% and -0.27.
Consider `Cc1ccc(NC(=O)[C@@H]2CN(S(=O)(=O)c3cccs3)CCO2)cc1`, for which the “% Inhibition” value was -7% and the Z score is 0.82.
The matching figures for `CCc1nccn1CCC(=O)N1C[C@H](C(=O)O)[C@@H](c2ccccc2OC)C1`: -12% and 2.26.
With `COc1cccc(C)c1NC(=O)N1CCN(C)[C@H](c2nc(C)no2)C1`, the “% Inhibition” value is recorded as -8% and the Z score is reported as 1.41.
On to `CCNC(=O)NC(=O)C(C)N1CCCC(CN2CCC(C)CC2)C1` (centres undefined), for which the “% Inhibition” value was -13% and the Z score came out at 1.34.
In the same order, the values of `Cc1ccc(-n2nc3c(N4CCN(C(=O)Nc5ccc(C)c(F)c5)CC4)nnc(C)c3c2C)cc1` are -4% and 0.42.
For the compound `Cc1ccc(C(N)=O)cc1NC(=O)c1cnn2c1C[C@@H](C)CC2`, the “% Inhibition” value is given as -20% and the Z score was found to be 2.5.
For the compound `Cn1c(-c2ccccc2)nnc1[C@@H](C#N)C(=O)Nc1ccccc1`, the “% Inhibition” value is recorded as 9% and the Z score is recorded as -0.93.
For the compound `O=C(c1c[nH]nc1-c1ccccc1)N1C[C@H]2CC=CC[C@H]2C1`, the “% Inhibition” value was -9% and the Z score turned out to be 1.43.
For the compound `Cc1nn(C)c(C)c1CCCN1C(=O)N[C@@H](C)C1=O`, the “% Inhibition” value stood at 4% and the Z score was -0.53.
The matching figures for `CC1CCN(c2nn(CC(=O)Nc3ccc4c(c3)OCO4)c(=O)c3ccccc23)CC1`: -15% and 2.33.
For the compound `Cc1ccc(OC(C)CNC(=O)N2CCS(=O)(=O)CC2C)cc1` (centres undefined), the “% Inhibition” value is reported as -5% and the Z score stood at 0.57.
For `Cc1cc(C)c(CC(=O)N2CCC3(CC2)OCC(=O)N3C)s1`, the “% Inhibition” value was -6% and the Z score is 0.94.
On to `CC(C)C(=O)Nc1cn(-c2ccc(C(=O)Nc3cccc(Cl)c3)cc2)cn1`, for which the “% Inhibition” value was found to be 23% and the Z score is listed as -3.37.
In the case of `CC(C)c1cc(C(=O)N2CCN(CC3CC3)[C@@H]3CS(=O)(=O)C[C@@H]32)no1`, the “% Inhibition” value was -11% and the Z score is recorded as 2.36.
With `CCc1nnc2c(NC(=O)c3cccc(Br)c3)cccn12`, the “% Inhibition” value was -3% and the Z score turned out to be 0.64.
Turning to `CC(C)(C)NCc1ccccc1OCC(=O)O`, the “% Inhibition” value turned out to be 2% and the Z score was -0.26.
In the same order, the values of `CNCCNC(=O)c1ccc2c(c1)n(CC1CC1)c(=O)n2C1CCCCC1` are 15% and -2.03.
With `Cc1ccc(C)c(Cn2c(C(=O)NCCc3ccccn3)cc3cc(NC(=O)c4ccccc4F)ccc32)c1`, the “% Inhibition” value turned out to be 3% and the Z score is -0.58.
In the same order, the values of `CCOc1cc(C(=O)Nc2ccc(N3CCN(c4c(F)c(F)c(F)c(F)c4F)CC3)c(Cl)c2)cc(OCC)c1OCC` are 21% and -2.4.
Consider `Cc1cc(OCC2CCN(C(=O)c3cc4ccccn4c3)CC2)ncn1`, for which the “% Inhibition” value was -5% and the Z score stood at 0.72.
The matching figures for `O=C(NCCc1ccc2c(c1)OCO2)c1ccc(-n2cnnc2)nc1`: -9% and 0.89.
Take `O=C(c1cccc(Oc2ccc(F)cc2)c1)N1C2CCC1CC(n1ccnn1)C2` (centres undefined): the “% Inhibition” value is -13% and the Z score is given as 1.87.
